Some of the results follow.
What follows are sequences tested on PfHDP1 homeodomain (GST-tagged) (assay: gcPBM binding intensity (ln(normalized median fluorescence intensity)); higher = stronger DNA binding).
In short: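 In this array assay, P. falciparum DNA-binding domains with a GST tag, expressed in E. coli, were applied for 1 h to primer-extended double-stranded 36-bp intergenic genomic probes and negative controls on an Agilent 4 × 180k array. Bound protein was visualised with Alexa488 anti-GST antibody at 488 nm. Binding intensity is the highest Masliner-normalised natural-log median intensity across replicate spots of either probe orientation.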

| Sequence | gcPBM binding intensity (ln) |
| --- | --- |
| ATGTTGCACAATGTTACACACACAATATATATCGTT [CACACA_site4833] | 10.7 |
| TATATTAGAAGAAATTCACACATTCATGTAATCTTA [CACACA_site4706] | 5.78 |
| AAAAAAATAAAAAGGAACGTCTATAGTTAATTTATT [CACACA_negctrl_site919] | 6.34 |
| TTCTTATATAAATACACACACAAAATATCTACAATG [CACACA_site4568] | 6.88 |
| TTTGAATATATAAATATGCACACTTCTATTATAAAT [CACACA_site3359] | 7.91 |
| TATTATTTTTCCTAATGTACAAAATATATATTTTTA [XGTACX_site2727] | 6.56 |
| TATATATATATATTTACACACATTCATATAAATTCA [CACACA_site3532] | 8.88 |
| GCCTACAGACTTAGTAGTACATGAGAAGATATATAT [XGTACX_site2269] | 6.58 |
| AATATGAACGGACACACACACACAAAAAAAAAAAAA [CACACA_site5154] | 6.48 |
| AAAATTTTTAAATATTGTACTATTTATTTTTAGCAT [XGTACX_site6190] | 6.6 |
| AAAATAAATAAATACACACACACGAATATATATATA [CACACA_site1683] | 8.57 |
| TTTTAAAAATAATAAATAAATAAAATTGAAGTTCCA [CACACA_negctrl_site305] | 6.03 |
| TATATTTATTTATATACACACACTTGTATAAAAAAT [CACACA_site2036] | 6.74 |
| TATCTATATGGGAACACACTCATAAATATATATCTA [CACACA_site4815] | 6.49 |
| TATATCAAAATACATACACACATTTGTATATACATT [CACACA_site2696] | 6.75 |
| TTAAATATTTTTAGAGTGCATGTAATAAAAATATAA [GTGCAC_site9414] | 7.72 |
| TATATACAGAAACACACACACACATATATATATATA [CACACA_site2247] | 9.07 |
| TATAAAAATATTTAATGTACGAATCTGTGATATATC [XGTACX_site7881] | 6.3 |
| AAAATACACGCATACACACACACACGCGCACATATA [CACACA_site6448] | 7.53 |

| Sequence | gcPBM binding intensity (ln) |
| --- | --- |
| ATTATTAAAAGAAGAAGTACTTATATATTAATATTA [XGTACX_site5227] | 6.65 |
| TTTTCATGTTGTAAAGCATGCTTTACTCATAAAAAA [TGCATGCA_site917] | 6.38 |
| CTAAACAGAATTATCACACATATAAATATAAACATA [CACACA_site4560] | 6.35 |
| ATATATTACATATGTGTGCACGTTCCAAAATTTTTA | 10 |
| GGTCTTATTTTTAGTAGTACAAATATAATATACATA [XGTACX_site6483] | 6.52 |
| TTTTTTTTTTTTTGTTGTACCCATCATATATACATA [XGTACX_site4342] | 6.5 |
| TTATTTTATTTTGAAGCATGCTTTTTGCTGTGATAA [TGCATGCA_site278] | 6.37 |
| AAATAATATTTATACACACACACATATTTATATACA [CACACA_site6403] | 6.92 |
| TTATGCGTTTGCAAAAGTACATATCTATTATTTTTA [XGTACX_site7609] | 8.78 |
| TTTTTAATTAACTTTTTATAAATAAATAAAAATATA [GTGCAC_negctrl_site334] | 5.84 |
| TTCACATACAGAAACACACACATATTTATAAATTAA [CACACA_site7699] | 6.9 |
| AAAAGAAAATTAAATTAACACACATAAATATATATA [CACACA_site8482] | 6.7 |
| ATTGTATATGTATATGCACACAATATATGTACTTAT [CACACA_site2611] | 9.66 |
| GATATATTATTTGAATGTACATATTATATTTATATT [XGTACX_site907] | 6.37 |
| TAACATATTATATATACATGCATACGTGAACTAATC [TGCATGCA_site888] | 6.66 |
| GTTAGAATTGTTAGGTGGTCAAAAAGGAGAAAAAAA [XGTACX_site2086] | 6.64 |
| TTTTTTTAGTTAATTAAACACACAAAAAAAAAAATA [CACACA_site9301] | 6.15 |
| CAACTAACATATATTCAACACACATATACCTTCAAC [CACACA_site8988] | 6.43 |
| ATAATATCATAATATTGTACATATTTTATTTTAAAT [XGTACX_site1115] | 6.21 |

| Sequence | gcPBM binding intensity (ln) |
| --- | --- |
| TTTTTTGTTTGAATGGTGCATTTTGTAATTATATTT | 9.66 |
| TTTTGATATAAATATTAGATTAATAAATAAAAAAAT [CACACA_negctrl_site1635] | 6.28 |
| TTAAAATAGATATTAGTGCAAAAAAAAAAAAATAAA | 9.63 |
| CTTAAATTGAAATGTTGTACAAAGTAAAAACAATGA [XGTACX_site2123] | 6.59 |
| ATATAATGTTGTAATAGTACTTTTTTCATATAAATA [XGTACX_site2666] | 6.51 |
| AAAGAATACAAAATTGCACACATATTGTGAAAATGT [CACACA_site9327] | 9.59 |
| TATTAACACAATAGCGCACACTTTTAATATTTTATA [CACACA_site1617] | 7.35 |
| TATTTATATATATGATGTACATAAGGTGTAATGTTA [XGTACX_site5591] | 7.26 |
| ATATATATTTAATGTTGTACATAAAAAATATATAAA [XGTACX_site7774] | 5.94 |
| TATTTACATACAAAATGTACAAAAATATATTTTTTT [XGTACX_site888] | 6.45 |
| TACATGAATATTTATACATGCACACTAAAATAAAGA [TGCATGCA_site611] | 8.2 |
| ATCTCTTATATATTCACACACATATATATAATTATA [CACACA_site1502] | 7.27 |
| AAATATAATAACGAACGTACTTATTATAATTTGTAA [XGTACX_site2342] | 6.28 |
| TATAATTTAACGACATGTACATATAAAAAAATATTT [XGTACX_site2395] | 6.68 |
| CACCCCCACAGACACACACACACACCGATATATATA [CACACA_site8010] | 7.07 |
| CATATTTTATTATATACATGCAATTTTAATATATAT [TGCATGCA_site544] | 6.63 |
| TGTAGATTTTGTAACACACACATATAAATACCTATA [CACACA_site7183] | 6.61 |
| TTATTTATATTTTTTTGTACACATATTGTATACATA [XGTACX_site1178] | 6.85 |
| AAAATGTATTCTCTCATGCACACTTTCTTTAAGGGA [CACACA_site2196] | 8.5 |
